According to PubChem BioAssay AID1347165 (National Center for Advancing Translational Sciences (NCATS), 2019):
Screen size: about 220,000 compounds; about 5,700 (2.6%) were called active. This list was built around the results that the source calls inconclusive (neither active nor inactive); the mix of calls is not that of the screen. The call rests on the fitted dose curve; in most records, active means well fitted inhibition curve with a large enough effect; inconclusive means small, poorly fitted or top-dose-only effect; inactive means no such curve, though single readings can be large or run the other way. Potencies beside an inconclusive call are fits to weak or partial responses and may not hold up.

Target: Lysine-specific demethylase 5B (Homo sapiens) (UniProt Q9UGL1)
UniProt Q9UGL1, sequence (Q9UGL1 whole entry, looked up): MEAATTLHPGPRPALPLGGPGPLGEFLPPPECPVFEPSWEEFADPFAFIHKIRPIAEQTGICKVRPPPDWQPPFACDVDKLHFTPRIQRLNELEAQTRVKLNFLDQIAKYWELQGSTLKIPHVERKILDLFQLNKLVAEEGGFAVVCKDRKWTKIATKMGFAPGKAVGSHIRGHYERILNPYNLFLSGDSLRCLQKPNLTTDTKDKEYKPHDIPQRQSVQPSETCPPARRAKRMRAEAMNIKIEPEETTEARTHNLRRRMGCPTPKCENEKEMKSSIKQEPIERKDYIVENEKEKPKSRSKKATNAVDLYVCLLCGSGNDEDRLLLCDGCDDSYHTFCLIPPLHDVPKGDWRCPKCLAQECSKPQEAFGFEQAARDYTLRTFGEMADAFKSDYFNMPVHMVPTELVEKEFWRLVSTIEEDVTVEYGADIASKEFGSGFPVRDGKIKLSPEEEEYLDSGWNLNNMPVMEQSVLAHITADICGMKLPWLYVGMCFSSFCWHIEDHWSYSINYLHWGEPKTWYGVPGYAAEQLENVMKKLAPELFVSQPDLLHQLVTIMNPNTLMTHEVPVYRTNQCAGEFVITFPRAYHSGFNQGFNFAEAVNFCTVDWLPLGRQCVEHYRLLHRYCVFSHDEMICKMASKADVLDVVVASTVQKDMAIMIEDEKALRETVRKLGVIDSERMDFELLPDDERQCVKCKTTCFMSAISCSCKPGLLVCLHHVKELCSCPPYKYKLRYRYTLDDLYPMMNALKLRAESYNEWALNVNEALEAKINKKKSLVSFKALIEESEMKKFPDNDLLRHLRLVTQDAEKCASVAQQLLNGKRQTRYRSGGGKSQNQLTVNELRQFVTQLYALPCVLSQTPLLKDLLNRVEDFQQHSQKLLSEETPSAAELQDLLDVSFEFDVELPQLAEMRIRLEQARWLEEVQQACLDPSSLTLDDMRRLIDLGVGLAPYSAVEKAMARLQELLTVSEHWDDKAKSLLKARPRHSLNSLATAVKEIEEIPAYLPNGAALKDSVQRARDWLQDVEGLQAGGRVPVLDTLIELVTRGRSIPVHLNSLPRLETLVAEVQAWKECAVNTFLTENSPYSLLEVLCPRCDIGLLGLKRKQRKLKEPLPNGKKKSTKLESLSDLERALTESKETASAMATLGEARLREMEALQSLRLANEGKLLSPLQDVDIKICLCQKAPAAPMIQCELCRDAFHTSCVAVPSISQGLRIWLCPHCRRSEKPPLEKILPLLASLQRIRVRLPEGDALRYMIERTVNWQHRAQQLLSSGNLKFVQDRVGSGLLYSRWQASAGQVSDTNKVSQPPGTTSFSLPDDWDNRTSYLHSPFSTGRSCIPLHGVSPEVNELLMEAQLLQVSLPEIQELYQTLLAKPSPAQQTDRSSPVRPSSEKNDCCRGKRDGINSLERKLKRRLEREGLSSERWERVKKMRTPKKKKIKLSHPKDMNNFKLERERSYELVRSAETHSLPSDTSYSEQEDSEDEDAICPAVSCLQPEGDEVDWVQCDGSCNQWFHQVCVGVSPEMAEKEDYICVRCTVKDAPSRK
Assay: Primary screen for KDM5B Histone Demethylases FDH-coupled qHTS; further: nearly all actives have a fitted effect of over 70% in size; on activity change, negative = inhibition: 0% is about no effect
Details: FDH-coupled NADH fluorescence (FDH is formaldehyde dehydrogenase); activity change, negative = inhibition: at 57.7 µM (top of the series) unless noted
In short: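 Here, H3K4me3 peptide (12.5 µM in substrate mix) is demethylated by KDM5BΔAP, 200 nM final, after 10 min compound exposure. Formaldehyde product is coupled through FDH (0.25 U/mL in mix) to NADH fluorescence; 30-min ΔRFU feeds dose-response curves.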
Potency means the concentration at half of the fitted maximal effect; tags describe the fitted curve by direction and shape.

Compound	activity change, negative = inhibition	Potency
O=C(NNC(=O)c1ccc2c(c1)CCCC2)c1cccnc1	inactive: 9.84%	–
CCOC(=O)C(=O)Nc1c(C(=O)Nc2ccc(OC)cc2)oc2ccccc12	inactive: 514%	–
O=C(Nc1ccc2nc3n(c(=O)c2c1)CCCC3)c1ccccc1F	–	inconclusive: 28.2 µM [inhibitor, single point]
COc1cccc(-c2cc3c(=O)n(CCNC(=O)c4cccc5[nH]ccc45)ccn3n2)c1	–	active: 25.1 µM
CCOc1cccc(CN2CCCC(CNC(=O)c3cccc(OC)c3OC)C2)c1 (configuration not stated)	–	inconclusive: 22.4 µM [inhibitor, partial curve, poor fit]
O=C(Nc1ccc2ccc(=O)oc2c1)C1=Cc2ccccc2OC=C1	inactive: -15.1%	–
CN(Cc1ccccc1)C(=O)c1cc2c(=O)n(C)c3ccccc3c2s1	–	inconclusive: 2.82 µM [inhibitor, full curve, poor fit]
CSc1ccc(CNC(=O)C2CCN(c3cc(C(F)(F)F)ncn3)CC2)cc1	–	inconclusive: 39.8 µM [inhibitor, single point]
CSc1cccc(N2C(=O)N(Cc3ccc([N+](=O)[O-])cc3)c3ccccc3S2(=O)=O)c1	inconclusive: -36.9% [inhibitor]	–
Cc1ccc(OC(C)C(=O)N2CCN(c3ccccn3)CC2)cc1 (configuration not stated)	inactive: 11.3%	–
Cc1nc(CC(=O)Nc2nn(C)c3cccc(Oc4cccnc4)c23)cs1	–	inconclusive: 11.2 µM [inhibitor, partial curve, poor fit]
Cc1cn2nc(C(=O)NCc3ccccc3)cc2c(N(C)Cc2ccccc2)n1	–	active: 31.6 µM
O=C(O)c1cc(N2C(=O)CCC2=O)ccc1NCc1cccnc1	–	inconclusive: 28.2 µM [inhibitor, partial curve, poor fit]
CC(=O)Cn1nnc2sc(-c3ccccc3)cc2c1=O	–	inconclusive: 31.6 µM [inhibitor, partial curve, poor fit]
O=C(Nc1ccccc1)c1ccc2c(c1)n(Cc1cccc(F)c1)c(=O)c1ccnn12	–	inconclusive: 35.5 µM [inhibitor, single point]
CC(C)c1ccc(C(=O)O)c(O)c1	–	inconclusive: 35.5 µM [inhibitor, single point]
Cn1nc(-c2ccc(OCC(=O)Nc3ccccc3)cc2)c2ccccc2c1=O	–	inconclusive: 44.7 µM [inhibitor, single point]
Cc1cc2nc3c(=O)n(CCc4ccccc4)c(=O)[nH]c3nc2cc1N	–	inconclusive: 20 µM [inhibitor, single point]
CCOCCn1cc(C2CCN(S(=O)(=O)c3ccc(CC)cc3)CC2)c2ccccc21	–	inconclusive: 22.4 µM [inhibitor, partial curve]
Cn1nc(N2CCC(NC(=O)c3ccncn3)CC2)ccc1=O	–	inconclusive: 39.8 µM [inhibitor, partial curve, poor fit]
O=C1c2cccn2CC(CNS(=O)(=O)Cc2ccccc2)N1Cc1ccccc1 (configuration not stated)	inactive: -12.8%	–
N#CC1CCN(C(=O)c2nc(-c3cccnc3)c3ccccn23)CC1	–	active: 100 µM
COc1ccc2c(c1)c1c(c(=O)n(Cc3ccccc3)c(=O)n1Cc1cc(C)ccc1C)n2C	–	inconclusive: 28.2 µM [inhibitor, partial curve, poor fit]

Compound	activity change, negative = inhibition	Potency
CN(C)c1ccc(C#N)cc1	inactive: 23%	–
COc1ccc(OCC2(C)COc3ccc(C(=O)N(C)CCN(C)C)cc3N2)cc1 (configuration not stated)	inactive: -10.8% [at 86.2 µM]	–
Cc1ccc(C)c(OCCSc2nc3ccccc3n2CC(=O)N2CCOCC2)c1	inactive: -15.7%	–
COc1cccc(CNC(=O)c2cc3n(n2)CC(c2ccc(Cl)cc2)OC3)c1 (configuration not stated)	inactive: 4.02%	–
COCCNC(=O)c1c(NC(=O)Cc2coc3cc(C)ccc23)sc2c1CCCC2	–	inconclusive: 31.6 µM [inhibitor, single point]
COCCO[C@H]1C(=O)N(C2CCN(Cc3c[nH]c4ccccc34)CC2)[C@H]1c1ccncc1	–	inconclusive: 20 µM [inhibitor, partial curve, poor fit]
N#Cc1ccc(Sc2ccc(Oc3cccc(Sc4ccc(C#N)c(C#N)c4)c3)cc2)cc1C#N	inactive: 84.5%	–
COc1ccc(N2CCN(c3nc(-c4ccccc4F)nc4ccccc34)CC2)cc1	–	inconclusive: 22.4 µM [inhibitor, partial curve, poor fit]
O=C(NCc1nnc2n1C(C(=O)N1CCN(c3ncccn3)CC1)CC2)Nc1cccnc1 (configuration not stated)	–	inconclusive: 79.4 µM [inhibitor, partial curve]
O=C(NCc1cccnc1)c1cc(-c2ccccc2F)cc2c1OCCN2Cc1cccnc1	–	active: 28.2 µM
CCOc1ccccc1NC(=O)C(NS(=O)(=O)c1cccc2nsnc12)c1ccccc1 (configuration not stated)	–	inconclusive: 11.2 µM [inhibitor, partial curve, poor fit]
CC(C)CCC(C)Nc1ncnc2c1CN(C1CCCNCC1)C(=O)CN2C (configuration not stated)	–	inconclusive: 44.7 µM [inhibitor, partial curve, poor fit]
O=C1N(Cc2ccccc2)c2ccccc2C12CCN([S+](=O)([O-])c1cccc(C(F)(F)F)c1)C2 (configuration not stated)	inactive: -24.5%	–
COc1ccc(-c2ccc(C#N)c(SCC(=O)Nc3ccccc3Cl)n2)cc1	–	inconclusive: 1.78 µM [inhibitor, partial curve, poor fit]
NC(=O)c1ccccc1OCc1ccc(C(F)(F)F)cc1	inactive: 29.5%	–
CC(Sc1oc(-c2ccco2)nc1S(=O)(=O)c1ccc(Br)cc1)c1ccccc1 (configuration not stated)	–	inconclusive: 35.5 µM [inhibitor, single point]
Cn1ncc(N2CCOC(CCNC(=O)c3cccnn3)C2)cc1=O (configuration not stated)	inactive: -17.7%	–
COCCNc1nc(NCc2ccccc2OC)c2cnn(C)c2n1	–	inconclusive: 44.7 µM [inhibitor, single point]
Cc1nc(-c2ccccc2)sc1-c1ccc(SCC(=O)Nc2ccc(F)cc2F)nn1	–	inconclusive: 15.8 µM [inhibitor, partial curve, poor fit]
O=S(=O)(c1ccccc1)N1CCCC(c2nnnn2-c2ccccc2)C1 (configuration not stated)	inactive: -11.5%	–
CCc1ccccc1N(CC)C(=O)c1cc2c(s1)-c1ccccc1OC2	–	inconclusive: 35.5 µM [inhibitor, partial curve, poor fit]
CCc1ccc(-n2nc(CO)c(C(=O)NCc3ccccn3)n2)cc1	–	inconclusive: 28.2 µM [inhibitor, partial curve, poor fit]
Cc1ccccc1CSc1nc2nc(C)c(Cc3ccccc3)c(C)n2n1	–	inconclusive: 15.8 µM [inhibitor, partial curve, poor fit]

Compound	activity change, negative = inhibition	Potency
Cc1n[nH]c(C)c1CCC(=O)Nc1ccc2c(c1)C(=O)N1CCC[C@H]1C(=O)N2	inactive: -0.391%	–
Cc1noc(C)c1S(=O)(=O)N1CCC2(CC1)CC1C(=O)NCCN1C2 (configuration not stated)	–	inconclusive: 14.1 µM [inhibitor, single point]
CCOC(=O)Cn1c(=O)cc(-c2ccccc2)c2c(C)nn(C)c21	–	inconclusive: 28.2 µM [inhibitor, partial curve, poor fit]
Cc1cccc(Cl)c1NC(=O)Cn1ccn2nc(-c3ccc(F)cc3)c(CO)c2c1=O	–	inconclusive: 22.4 µM [inhibitor, partial curve, poor fit]
Cc1noc(C)c1[S+](=O)([O-])NC1CCCN(c2nc3ncccc3o2)C1 (configuration not stated)	–	inconclusive: 17.8 µM [inhibitor, single point]
O=C(Cn1c(=O)[nH]c2c(-c3ccccc3F)c[nH]c2c1=O)NCc1ccc2c(c1)OCO2	inactive: 5.8%	–
CC(C)Oc1ccc(CNC(=O)c2ccc(NC(=O)c3nsc4ccccc34)cc2)cc1	–	inconclusive: 25.1 µM [inhibitor, single point]
O=C(Nc1ccc(NC(=O)c2cccs2)cc1)c1ccc(Br)cc1	–	inconclusive: 8.91 µM [inhibitor, partial curve, poor fit]
CCCc1nnc2sc(-c3ccc4c(c3)OCO4)nn12	–	inconclusive: 14.1 µM [inhibitor, partial curve, poor fit]
Cn1cnc(S(=O)(=O)N2CCCC(C(=O)NC3CCCCC3)CCNC(=O)CC2)c1 (configuration not stated)	inactive: -0.416%	–
CCOC(=O)c1ccccc1NS(=O)(=O)c1c(-c2ccc(C)cc2)csc1C(=O)OC	–	inconclusive: 3.98 µM [inhibitor, partial curve, poor fit]
COc1cccc(CNC(=O)CCc2c(C)c3cc4c(C)c(C)oc4cc3oc2=O)c1	–	inconclusive: 0.631 µM [inhibitor, full curve, poor fit]
CC(C)N(c1ccccc1)c1ccc(NC(=O)Cn2nc(C(=O)O)c3ccccc3c2=O)cc1	inactive: -13.1%	–
Fc1ccc(-c2ccnc3nc(C4CCC4)nn23)cc1	–	active: 31.6 µM
C#CCOc1ccc(C(=O)N[C@@H]2CN(Cc3ccc(CO)o3)CCC[C@H]2O)cc1	–	inconclusive: 20 µM [inhibitor, partial curve, poor fit]
O=C(Cc1c[nH]c2ncc(-c3ccc(F)c(Cl)c3)cc12)NCc1cccnc1	–	active: 31.6 µM
COc1cccc(CNC(=O)c2ncoc2-c2cccs2)c1OC	–	inconclusive: 28.2 µM [inhibitor, partial curve, poor fit]
COCCn1ncc(N2CCCC(CC(=O)NCCC3=CCCCC3)C2)cc1=O (configuration not stated)	inactive: -7.48%	–
Cc1nc(-c2ccccc2)sc1CCNC(=O)c1ccco1	–	inconclusive: 8.91 µM [inhibitor, partial curve, poor fit]
CCCN(CC1CCOC1)C(=O)c1c(F)cccc1Cl (configuration not stated)	inactive: -5.81%	–
O=C(OCc1noc(-c2ccco2)n1)c1cc(Br)c[nH]1	–	inconclusive: 1.78 µM [inhibitor, partial curve, poor fit]
